From ChEMBL document CHEMBL5606460, “ASAP - DENV-2 NS2B-NS3 protease fluorescence single point” (2024) come the findings set out here.

Molecules are shown by their SMILES. Several values for one entry are separate records, joined by “and”; a condition that tells them apart may be missing. Equal values may be shown once. Out of some 2,000 compounds screened, about 110 (5.5%) showed an effect of 50% or more. This is one part of the list.

By inhibition is commonly meant the change of the read-out against control, counted positive when it falls.

The experiment deals with Genome polyprotein (dengue virus type 2) (UniProt P29990).
The mark [1] stands for this setting: Thailand/16681/1984, Concentration 25.0 uM, Number of replicates 1.0.

As for `O=Cc1ccc(N2CCC(C(=O)N3CCN(C(=O)[C@@H]4CCCO4)CC3)CC2)cc1`, under setting [1], the inhibition came out at 13.2%. `C[C@@H](C(=O)NCc1ccc(N2CCN(C)CC2)cc1)c1ccccc1`: the inhibition reads like this: (Thailand/16681/1984, Concentration 49.5 uM, Number of replicates 2.0, Standard deviation 0.5938509183696951 %) 0.242%; (Thailand/16681/1984, Concentration 99.01 uM, Number of replicates 2.0, Standard deviation 1.5516151545043084 %) 0.125%; (Thailand/16681/1984, Concentration 198.0 uM, Number of replicates 2.0, Standard deviation 1.8826140805854623 %) 0.385%.

Regarding `O=Cc1ccc(N2CCC(C(=O)N3CCC(N4CCCC4=O)CC3)CC2)cc1`, under setting [1], the inhibition came to 12.4%.

Turning to `Cc1cc(CO)c2cccc(NC(=O)C3CCC(N)CC3)c2n1` (stereo unspecified), the inhibition reads like this: (Thailand/16681/1984, Concentration 49.95 uM, Number of replicates 2.0, Standard deviation 0.3430335372049546 %) 80.8%; (Thailand/16681/1984, Concentration 99.9 uM, Number of replicates 2.0, Standard deviation 0.009052468710563864 %) 98.8%.

For the compound `Nc1ccc2c(Cl)cccc2n1`, the inhibition reads like this: (Thailand/16681/1984, Concentration 49.95 uM, Number of replicates 2.0, Standard deviation 6.716644341731542 %) -6.5%; (Thailand/16681/1984, Concentration 99.9 uM, Number of replicates 2.0, Standard deviation 7.103273230337014 %) -6.29%. Regarding `Cc1nn(Cc2cccc(F)c2F)cc1C1CCNCC1`, the inhibition reads like this: (Thailand/16681/1984, Concentration 49.5 uM, Number of replicates 2.0, Standard deviation 0.22901046476794615 %) -2.99%; (Thailand/16681/1984, Concentration 99.01 uM, Number of replicates 2.0, Standard deviation 0.3068924460194689 %) -2.95%; (Thailand/16681/1984, Concentration 198.0 uM, Number of replicates 2.0, Standard deviation 1.605854523908857 %) -2.42%. `COCC[C@@H](NC(=O)OCc1ccccc1)C(=O)Nc1cccc(CN)c1`: the inhibition was -1.87% (Thailand/16681/1984, Concentration 49.5 uM, Number of replicates 2.0, Standard deviation 0.33482864161794484 %); -1.32% (Thailand/16681/1984, Concentration 99.01 uM, Number of replicates 2.0, Standard deviation 0.002886469067117089 %); -1.04% (Thailand/16681/1984, Concentration 198.0 uM, Number of replicates 2.0, Standard deviation 0.2560696265957589 %).

With `Cc1cc(NC(=O)C2CCN(c3ccc(C=O)cc3)CC2)cnc1Br`, the inhibition under setting [1] amounted to 10.6%. The same measure, in the same setting: next, `O=Cc1ccc(N2CCC(C(=O)NCc3ccc(SC(F)(F)F)cc3)CC2)cc1`: 3.18%; `COc1ccc(-c2cc(NC(=O)C3CCN(c4ccc(C=O)cc4)CC3)[nH]n2)cc1`: 0.343%. For `O=C(c1nc2ccccc2[nH]1)N1CCCC[C@H]1c1nc2ccccc2[nH]1`, the inhibition is -0.099% (Thailand/16681/1984, Concentration 49.5 uM, Number of replicates 2.0, Standard deviation 0.9679631096613857 %); 0.613% (Thailand/16681/1984, Concentration 99.01 uM, Number of replicates 2.0, Standard deviation 0.7361712005044555 %); 1.8% (Thailand/16681/1984, Concentration 198.0 uM, Number of replicates 2.0, Standard deviation 1.3068429485050461 %). `N#Cc1cccnc1N1CCN(C(=O)C2CCN(c3ccc(C=O)cc3)CC2)CC1`: the inhibition under setting [1] turned out to be 12.3%. In the case of `CCCCCC(=O)N[C@H](C(=O)NCc1cccc(CN)c1)C(C)C`, the inhibition is, setting by setting: (Thailand/16681/1984, Concentration 49.5 uM, Number of replicates 2.0, Standard deviation 0.790767685424793 %) -1.91%; (Thailand/16681/1984, Concentration 99.01 uM, Number of replicates 2.0, Standard deviation 0.5529643765331101 %) -1.86%; (Thailand/16681/1984, Concentration 198.0 uM, Number of replicates 2.0, Standard deviation 0.2038996463796708 %) -0.642%. Consider `Cc1nccn1-c1ccccc1CNC(=O)C1CCN(c2ccc(C=O)cc2)CC1`, for which the inhibition under setting [1] was 15.3%. For the compound `CCn1ccnc(N[C@@H](Cc2c[nH]c3ccccc23)C(=O)N2CCCCC2)c1=O`, the inhibition is -3.98% (Thailand/16681/1984, Concentration 49.5 uM, Number of replicates 2.0, Standard deviation 1.8610654084662064 %); -2.19% (Thailand/16681/1984, Concentration 99.01 uM, Number of replicates 2.0, Standard deviation 1.4549886152586564 %); -1.56% (Thailand/16681/1984, Concentration 198.0 uM, Number of replicates 2.0, Standard deviation 1.4588150854881121 %). With `Cc1cc(CO)c2cccc(Cc3ccccc3NC(=O)[C@@H](N)c3ccsc3)c2n1`, the inhibition is, setting by setting: (Thailand/16681/1984, Concentration 49.95 uM, Number of replicates 2.0, Standard deviation 1.804981271502336 %) 4.91%; (Thailand/16681/1984, Concentration 99.9 uM, Number of replicates 2.0, Standard deviation 1.1569323403231935 %) 9.24%.

For the compound `Cc1cccc(CN2CCC(c3c[nH]c4cccnc34)CC2)c1`, the inhibition is -1.88% (Thailand/16681/1984, Concentration 49.5 uM, Number of replicates 2.0, Standard deviation 4.044098684902046 %); -1.06% (Thailand/16681/1984, Concentration 99.01 uM, Number of replicates 2.0, Standard deviation 4.567031493116113 %); -1.22% (Thailand/16681/1984, Concentration 198.0 uM, Number of replicates 2.0, Standard deviation 4.96530454444078 %).

Regarding `CN(C)C(=O)N1CCN(C(=O)C2CCN(c3ccc(C=O)cc3)CC2)CC1`, the inhibition under setting [1] came out at 12.6%. For `N#Cc1cccc(-c2nc3c(C(=O)Nc4ccc5c(c4)CNC5)cc(Cl)cc3[nH]2)c1`, the inhibition is 96.4% (Thailand/16681/1984, Concentration 99.5 uM, Number of replicates 2.0, Standard deviation 0.0717454001083366 %) and 93.6% (Thailand/16681/1984, Concentration 295.6 uM, Number of replicates 2.0, Standard deviation 0.16315483385791593 %). In the case of `CN(CC[C@H](O)c1cccs1)C(=O)C1CCN(c2ccc(C=O)cc2)CC1`, under setting [1], the inhibition stood at 16.4%. Same read-out and setting: next, `O=Cc1ccc(N2CCC(C(=O)Nc3cc(F)c(Br)c(F)c3)CC2)cc1`: 13.9%; `O=Cc1ccc(N2CCC(C(=O)NC3CCN(C(=O)C4CC4)CC3)CC2)cc1`: 8.36%. Consider `CN1CCN(C(=O)C2CCN(c3ccc(C=O)cc3)CC2)[C@H](c2ccccc2)C1`, for which the inhibition under setting [1] is 11.2% and 11.6%.
